# Hit rate of the full screen: of about 410,000 compounds, about 530 (0.13%) were called active. The inconclusive results got no clear call from the source; some entries with a clear call stand among them for comparison. Calls follow the shape of the dose curve; as a rule, active = well fitted inhibition curve with a large enough effect; inconclusive = small, poorly fitted or top-dose-only effect, or another doubt; inactive = no such curve, though single readings can be large or run the other way. Where the call is inconclusive, the potency comes from a doubtful curve fit.
# Test: qHTS of GLP-1 Receptor Inverse Agonists: Cytotox Screen
# Conditions: HEK293 cAMP-luciferase reporter cells, luminescence, 24 h; activity change, negative = inhibition: at 38.3 µM (top of the series) unless noted
# In short: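 Here, cytotoxicity is scored as loss of luminescence. The MLSMR collection was tested on cells seeded in medium containing 10% Nu serum, with a 24 hr compound exposure preceded by 12 hours of culture.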
# % is scaled to controls: 0 for no effect and ±100 for the full control effect; potency is read from the fitted curve at half-maximal effect.
SMILES,Potency,"activity change, negative = inhibition"
COc1ccccc1Oc1ccc2c(c1)C(=O)N(c1cccc3ncccc13)C2=O,"inconclusive: 12.6 µM [inhibitor, single point]",–
Cn1ccnc1SCC(=O)N1CCc2ccccc21,"inconclusive: 5.01 µM [inhibitor, partial curve]",–
CCN(C(=O)CSc1nc2ccccc2n1CCc1ccccc1)C1CCS(=O)(=O)C1 (centres undefined),"inconclusive: 11.2 µM [inhibitor, single point]",–
Cc1cc(C)nc(N/N=C/c2cc(Br)ccc2O)n1,inactive,–
CC(C)c1ccc(NC(=O)CSc2ncnc3c2sc2ccccc23)cc1,inactive,–
COc1c(C)cccc1C(=O)Nc1ccc(Cl)c(-c2nc3cc(C)ccc3o2)c1,inactive,–
O=C(O)C1Sc2[nH]c(=O)sc2C2c3ccc(O)cc3OC(=O)C12 (centres undefined),–,inactive: 17.5% [at 7.66 µM]
COc1ccc(-c2cc(C)no2)cc1S(=O)(=O)N1CCN(c2ccccn2)CC1,inactive,–
Fc1ccc(NC(=S)Nc2ccccc2Cl)cc1,"inconclusive: 28.2 µM [inhibitor, single point]",–
COc1cc2c(c(OC)c1OC)-c1ccc(OC)c(=O)cc1C(NC(=O)c1ccccc1)CC2 (centres undefined),"inconclusive: 0.891 µM [inhibitor, full curve, poor fit]",–
CCOc1ccccc1NC(=O)Nc1ccc2nc(N3CCN(C)CC3)cc(C)c2c1,"inconclusive: 14.1 µM [inhibitor, single point]",–
CC(=O)c1ccc(N=Nc2ccc(N)cc2)cc1,"inconclusive: 28.2 µM [inhibitor, single point]",–
CCCOP(=O)(OCCC)c1nc(-c2ccccc2)oc1NCc1ccccc1,inactive,–
Cc1c(CCOC(=O)CC23CC4CC(CC(C4)C2)C3)sc[n+]1CC(=O)c1ccccc1,"inconclusive: 22.4 µM [inhibitor, single point]",–
FC(F)(F)c1ccc(Cl)c(NC(=S)NC2CC2)c1,inactive,–
C#CCSc1nc(-c2cccs2)ccc1C#N,inactive,–
Cc1noc(C)c1S(=O)(=O)Nc1ccc(C(=O)Nc2ccc(C(C)C)cc2)cc1,"inconclusive: 6.31 µM [inhibitor, partial curve, poor fit]",–
Cc1cc(Nc2ccccc2F)n2nc(C)nc2n1,inactive,–
COc1ccc2c(c1)CC[C@@H]1[C@@H]2CC[C@]2(C)[C@@H](C(C)=O)C[C@@H]12,"inconclusive: 2.51 µM [inhibitor, partial curve, poor fit]",–
Cc1ccc2nc(NCc3ccccc3)[nH]c2c1,"inconclusive: 5.62 µM [inhibitor, partial curve]",–
O=[N+]([O-])c1ccc(N2CCC(O)CC2)nc1,"inconclusive: 12.6 µM [inhibitor, single point]",–
CCN(CC(=O)Nc1c(F)cccc1F)C(=O)c1cc([N+](=O)[O-])ccc1N1CCCCC1,"inconclusive: 28.2 µM [inhibitor, single point]",–
N#CC(=C1C=C(Br)C(=NO)C=C1Cl)c1cccc2ccccc12,"inconclusive: 11.2 µM [inhibitor, partial curve, poor fit]",–

SMILES,Potency,"activity change, negative = inhibition"
CC(C)C(=O)N(c1cc2sc(=O)oc2c2ccccc12)S(=O)(=O)c1cccs1,inactive,–
CCc1nnc(SCC(=O)Nc2ccc(Cl)cc2F)c2cc3occc3n12,inactive,–
COc1ccc(NC2=C(NC(C)=O)C(=O)c3ccccc3C2=O)cc1,–,inconclusive: -57.5% [inhibitor]
COc1cnc(-c2ccccn2)nc1Oc1ccc(F)cc1F,"inconclusive: 10 µM [inhibitor, partial curve]",–
Cc1ccccc1-c1nnc(SCC(=O)N(C)c2ccccc2)o1,inactive,–
COc1ccc(NC(=O)Nc2sc(=S)n(C)c2C)cc1,"inconclusive: 12.6 µM [inhibitor, single point]",–
NS(=O)(=O)c1ccc(CNC(=O)c2cc(-c3ccccc3)nc3ccccc23)cc1,"inconclusive: 28.2 µM [inhibitor, single point]",–
CC1(C)CC(O)(CCNCc2ccc3c(c2)OCO3)CCO1 (centres undefined),"inconclusive: 28.2 µM [inhibitor, single point]",–
CC1CC(C)(C)NC(=S)N1CCC(=O)N1c2ccccc2CC1C (centres undefined),"inconclusive: 12.6 µM [inhibitor, single point]",–
COc1ccc(S(=O)(=O)Cc2ccccc2)cc1N,"inconclusive: 5.62 µM [inhibitor, partial curve]",–
COc1ccc2c(c1)c1c(c(=O)n(-c3ccccc3C)c(=O)n1CC(N)=O)n2C,inactive,–
CN(CC(=O)Nc1ccccc1Cl)C(=O)c1ccc(Cl)c(S(=O)(=O)N2CCCCCC2)c1,inactive,–
COc1ccc(S(=O)(=O)N2CCOCC2)cc1NC(=O)c1ccncc1,"inconclusive: 0.501 µM [inhibitor, full curve, poor fit]",–
CCOC(=O)N1CCC(N(CCN(C)C)C(=S)Nc2cc(Cl)ccc2C)CC1,"inconclusive: 4.47 µM [inhibitor, partial curve, poor fit]",–
CCCCc1c(-c2ccccc2OC)ncn1CCc1ccc(Cl)cc1,"inconclusive: 22.4 µM [inhibitor, single point]",–
O=C(O)c1ccccc1C(=O)NNc1ccc(Cl)cc1,"inconclusive: 2 µM [inhibitor, partial curve, poor fit]",–
CC(Oc1ccc(Cl)cc1)C(=O)N1CCN(C(=O)c2ccco2)CC1 (centres undefined),inactive,–
CCn1c(SCC(=O)NC2CCCC2)nnc1C(C)C,inactive,–
CN(C)C(=S)Nc1cccc(F)c1,"inconclusive: 0.501 µM [inhibitor, full curve, poor fit]",–
CCN(CC)CCN(C(=O)c1ccco1)c1nc2c(C)c(C)ccc2s1,"inconclusive: 10 µM [inhibitor, single point]",–
CN(C)CCCN(C(=O)c1ccc(C(=O)c2ccccc2)cc1)c1nc2cc3c(cc2s1)OCO3,"inconclusive: 28.2 µM [inhibitor, single point]",–
CCCCNC(=O)CC1Nc2cc(C)c(C)cc2NC1=O (centres undefined),inactive,–
CN(C)S(=O)(=O)c1ccc(C(=O)NCCSc2c(-c3ccc(Br)cc3)[nH]c3ccccc23)cc1,inactive,–

SMILES,Potency,"activity change, negative = inhibition"
O=C(NNc1ccc([N+](=O)[O-])cc1)c1ccco1,"inconclusive: 28.2 µM [inhibitor, single point]",–
Cc1nn(-c2ccccc2)c2c1C1(C(=O)Nc3ccccc31)N1C(=N2)Sc2ccccc21 (centres undefined),"inconclusive: 22.4 µM [inhibitor, single point]",–
CCOC(=O)Nc1ccc(C(=O)/C=C/c2ccccc2)cc1,"inconclusive: 10 µM [inhibitor, partial curve, poor fit]",–
CSc1ccccc1OCc1cc(C(=O)N2CCCC(C)C2)no1 (centres undefined),inactive,–
Nc1c2c(=O)oc(-c3ccccc3)cc2nn1-c1ccccc1,"inconclusive: 20 µM [inhibitor, single point]",–
COc1cc(OC)cc(C(=O)Nc2ccc3nc4c(c(Nc5ccc(OC)c(OC)c5)c3c2)CCCC4)c1,"inconclusive: 28.2 µM [inhibitor, single point]",–
O=C1N(Cc2cccc(Cl)c2)C[C@@H]2C[C@@H](c3ccc4nonc4c3)N3CCC[C@@]123,"inconclusive: 11.2 µM [inhibitor, single point]",–
COC(=O)[C@]1(Cc2ccccc2)N[C@H](c2ccc(-c3cc(C(C)=O)cs3)cc2)[C@@H]2C(=O)N(C)C(=O)[C@@H]21,inactive,–
OC(COCC(F)(F)C(F)(F)C(F)(F)C(F)F)Cn1c2ccc(Cl)cc2c2cc(Cl)ccc21 (centres undefined),"inconclusive: 10 µM [inhibitor, partial curve, poor fit]",–
O=C1NC(=S)S/C1=C\C=C\c1ccc([N+](=O)[O-])o1,"inconclusive: 6.31 µM [inhibitor, partial curve, poor fit]",–
O=C(COc1ccccc1)NC(=S)N1CCc2ccccc21,"inconclusive: 31.6 µM [inhibitor, single point]",–
CC(C)CN1CCNC(=O)C1CC(=O)NCCc1cnn(-c2ccccc2)c1 (centres undefined),inactive,–
Cc1noc(C)c1COc1ccc(C(=O)NCCc2ccc(F)cc2)cc1,"inconclusive: 20 µM [inhibitor, single point]",–
CC(Sc1ccsc1[N+](=O)[O-])C(=O)NCCc1ccc(Cl)cc1 (centres undefined),"inconclusive: 11.2 µM [inhibitor, single point]",–
COc1cccc(NC(=O)N2CCCC2C(=O)NC23CC4CC(CC(C4)C2)C3)c1 (centres undefined),"inconclusive: 10 µM [inhibitor, partial curve]",–
CCOC(=O)N1CCC(N2C(=O)c3ccc(C(=O)NCCOC)cc3C2=O)CC1,"inconclusive: 14.1 µM [inhibitor, single point]",–
CCn1nc(C)c2c(-c3ccccc3)cc(=O)n(C(C)C(=O)Nc3cccc(F)c3)c21 (centres undefined),inactive,–
CCOc1ccc(NC(=O)CSc2oc(-c3cccs3)nc2S(=O)(=O)c2ccc(C)cc2)cc1,inactive,–
CCCCCCCN1C(Nc2ccccc2)=NC[C@@H]1CC(C)C,"inconclusive: 7.08 µM [inhibitor, partial curve, poor fit]",–
COc1cc(/C=C2\NC(=S)N(C)C2=O)ccc1OCc1ccccc1F,inactive,–
CCOC(=O)/C(=N\Nc1ccc(Br)cc1)N1CCN(c2ccccc2OC)CC1,"inconclusive: 10 µM [inhibitor, partial curve]",–
CCCCC[n+]1ccn(C2=C([O-])c3ccccc3C(=O)/C2=N\S(=O)(=O)c2ccccc2)c1,"inconclusive: 10 µM [inhibitor, single point]",–
Cc1cc(C)cc(NC(=S)NCc2ccc(F)cc2)c1,"inconclusive: 12.6 µM [inhibitor, partial curve, poor fit]",–
